The supplement of paper PMC3334620
Over roughly 33,000 sequences, “E-score (-0.5 to 0.5)” has its median near -0.017; the highest 2% begin near 0.3. This is one part of the list.

Target: T1, Sut1 (UniProt P53032)
T1 sequence: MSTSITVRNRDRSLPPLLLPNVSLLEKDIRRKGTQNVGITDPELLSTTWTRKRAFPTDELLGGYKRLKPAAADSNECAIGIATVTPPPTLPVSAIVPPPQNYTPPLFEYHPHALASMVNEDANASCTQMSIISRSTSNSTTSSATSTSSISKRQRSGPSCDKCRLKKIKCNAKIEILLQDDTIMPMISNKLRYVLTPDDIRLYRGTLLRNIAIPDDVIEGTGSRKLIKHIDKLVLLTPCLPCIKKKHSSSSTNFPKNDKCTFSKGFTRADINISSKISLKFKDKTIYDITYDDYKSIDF
Experiment: PBM E-score (8-mer binding enrichment) (E-score (-0.5 to 0.5)); higher = stronger / more preferred TF binding; most listed sequences are background and not binding sites
Conditions: protein concentration: 200 nM; construct: GST-full length
Summary of the method: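 Yeast transcription factors, full-length or as DNA-binding domains, were expressed with a GST tag using PURExpress in vitro transcription/translation. At about 100-200 nM they were applied to universal all-10-mer Agilent arrays, double-stranded by primer extension on fresh or once-stripped slides. Fluorescent anti-GST detected bound protein, and masliner normalised the scans. E-scores for ungapped eight-base words, pooled with reverse complements, came from the Universal PBM Analysis Suite.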

Sequence | PBM E-score
GCCTACGA | -0.16
GTATCGTA | 0.16
CAAGTCCA | 0.0573
CAACACGA | -0.0458
CGAATAAG | -0.00132
AACGCAAG | -0.128
CAACCCCC | -0.266
CGGCCCGA | -0.176
AGATTTCC | 0.14
ACGTTCTA | -0.015
AAGGCAAA | -0.00534
CGACATCC | -0.0333
CAACGGGA | 0.0235
ACCGCTTG | -0.0649
AGTAGAAT | 0.189
GCCGACTA | 0.0858
CTGGTCTA | -0.144
GCTTTTAA | 0.0428
CTAAAATC | 0.0458
TGAAATAA | 0.00073
TACGAGAA | 0.0943
CCGCATCG | -0.0554
TCGCGAAA | -0.00363
GTGGTACA | -0.0752
CGCGTGAC | -0.216

Sequence | PBM E-score
AACAGGAG | -0.0906
GCCTCCAA | -0.213
AGACGAGC | -0.148
CTGCGCTA | -0.193
GCCGGAGA | 0.316
CCATGACG | -0.0782
GAATACCC | -0.111
CTTTATAC | 0.0888
CAGACTCC | 0.0916
ACAAGTAA | 0.00723
CGCCAGAC | -0.117
ACTAATCT | 0.205
ACACGATC | 0.0362
AGGCTGGA | -0.299
CATCCGCC | 0.0389
AAGTTCGT | -0.2
GAGCTGCA | -0.0497
AGATTAGA | 0.123
CCGTCATC | -0.214
ATGATTCA | -0.0566
CGCGCCCC | -0.28
ATGACCTA | 0.0964
ACCGGCTC | -0.129
ACACCTCA | -0.142
CTATGATC | 0.0165

Sequence | PBM E-score
ATAACTAG | 0.114
GACGCACA | -0.013
ACCCTGAG | -0.102
TCCGAAAA | 0.353
ACTCTCGG | 0.222
GATGGACA | 0.0137
CACCCATA | -0.301
CAAAGACC | 0.0716
GAATCGGC | 0.0753
GTTCAAAA | 0.0621
CCAGGTTA | -0.0537
GTGAGAGA | -0.175
ACGTGACC | -0.124
ACGCAGCA | -0.131
GATAAGCA | 0.0379
AGGCACAC | -0.303
AGGGGTGC | -0.364
CATCTGAG | -0.143
CGATACTA | 0.193
TGATGGCA | -0.121
CACTATCG | 0.0427
ATGATTGC | 0.045
AGCTTCGG | 0.111
CACTGGCC | -0.137
CCATTAAA | 0.0785

Sequence | PBM E-score
AGAAGATA | 0.276
CGTTTATA | 0.17
CTCCGCAA | 0.271
CTTCCGGC | 0.0877
CCTCGAGG | -0.221
GCGGACAA | 0.23
AGTATGCA | -0.0849
AAGAGTTG | 0.0464
CACTCGAA | -0.11
GGCTATCA | -0.203
AGGGAGGG | -0.158
AGTAGTGA | 0.0779
AGAGGGAT | -0.201
CTCTACCA | -0.0474
CTCGCCAG | -0.204
GTCCGGAC | 0.469
CACCCGGC | -0.285
AGAATGAC | 0.0454
ACCAATCG | 0.00273
ACCTCAGG | -0.281
GTTCCAAC | 0.0919
ACTCGCTG | 0.0106
CAGAGGCG | -0.259
TAGTTACA | 0.0671
CAGTCTTC | -0.165

Sequence | PBM E-score
AAGTGAAT | 0.234
AGCTCGAG | -0.282
AACTAGAC | 0.041
CGTATACG | 0.216
GTCATATA | 0.213
GAGCGCAC | -0.0866
ATCAGGCC | -0.101
GAATTTCC | 0.0821
GAAGGAAC | -0.0109
TGCCGCCA | -0.0294
AATCAGAT | 0.0945
AAGTCGGA | 0.226
CTCTCGAA | -0.282
GTGAACTA | 0.101
GGATATGA | 0.127
CGGAAGAG | -0.0486
ACCTACGG | -0.15
ACAAACTC | 0.214
AAAAATAC | 0.132
GAAAGTGC | 0.0396
GCTGAGCA | -0.181
GAGCGACA | -0.137
CTTTAAGA | 0.207
GCCCGCCC | -0.27
CACAGTAA | 0.101

Sequence | PBM E-score
GTTAACCA | 0.0107
GTGCAAGA | 0.0812
ATTATTCC | 0.288
ACTCACAT | 0.027
ATGGGTGG | -0.106
ACGCAGAC | -0.153
ACCGTTCA | -0.131
ATGTGACG | -0.16
ACATTTGG | -0.0798
GCACAGAC | -0.0501
CGAAGGTA | -0.0153
GTAGCTGA | -0.23
ATAAAGGA | -0.0584
CTCGATAA | 0.0724
AAAAGAAC | 0.164
AGACACAT | -0.138
CCCCGTCG | -0.248
CAGTATGA | 0.00658
ACGGCATG | -0.236
CACCACGA | 0.0198
AGACACAG | 0.00857
CGGTATGC | -0.22
AAAATAAT | 0.279
GACCTGTA | -0.0355
CCAATAAA | 0.148

Sequence | PBM E-score
AGTAGCGA | 0.0569
AGTCCGGA | 0.487
GGAAGCTA | 0.124
CTGGTTGA | -0.208
CTGTGGGA | -0.301
CAAATACA | 0.115
CTAATTTC | 0.299
GCGATAGC | -0.0987
TAGAGAAA | -0.00228
CACACGGG | -0.067
AAGCAAAA | 0.195
GCTTCATA | 0.0636
CCGCCCCC | -0.19
CAGCTCCA | -0.0491
AATACAAG | 0.123
CTCGAAAC | 0.0798
CAGCGGGC | -0.158
CAAACAGG | -0.292
AAAAACTT | 0.163
AATCATGA | 0.224
CCTGCTCC | 0.00148
CCAAGTCA | -0.059
